Measured values reported in the supplement of paper PMC11417369.
± gives the standard deviation of the averaged measurements. The list shows a part of the results.

System: PfAP2-LT AP2 domain (GST-tagged)
Test: gcPBM binding intensity (ln(normalized median fluorescence intensity)); higher = stronger DNA binding
How it was run: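 GST-fused DNA-binding domains of P. falciparum, expressed in E. coli, were applied at about 25 μg on average for 1 h to an Agilent 4 × 180k array of primer-extended double-stranded 36-bp intergenic genomic probes and negative controls. Binding intensity is the highest Masliner-normalised natural-log median intensity across replicate spots of either probe orientation, measured with Alexa488 anti-GST antibody and a 488 nm scan.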

| Sequence | gcPBM binding intensity (ln) |
| --- | --- |
| AAGTTGTATATTGATTGTACTTGTTTAGGGTTATAG [XGTACX_site2953] | 8.87 ± 0.45 |
| ATATATATAATAAACACACACATATACATATATGTA [CACACA_site3462] | 9.3 ± 0.31 |
| TATATATATATAATGTGTACACAAATATATATTATA [XGTACX_site8786] | 8.8 ± 0.37 |
| AGGTAAAATATACATTGTACATATAATTAATTTATT [XGTACX_site626] | 8.77 ± 0.52 |
| TGGGTAATACATAATACACACATGTATATGTCGCAT [CACACA_site1125] | 9.24 ± 0.4 |
| AGTATATATACACAAGGGGAATACATATACAAAATT [TGCATGCA_negctrl_site244] | 9.04 ± 0.46 |
| AAATTTATATAATATTGTACATTAAAAATTATATAT [XGTACX_site8009] | 8.45 ± 0.51 |
| TATGTATAAATATATGCACACATATATATATTTATA [CACACA_site9150] | 8.85 ± 0.38 |
| TTTTTAAAAAAGATAAGCGAAAGAATTAATTTTTAA [GTGCAC_negctrl_site197] | 8.13 ± 0.52 |
| TAAATTAATAAAAAGTGTACATAATATACATATATA [XGTACX_site8604] | 8.79 ± 0.38 |
| TACAATACCGTACAGGTGCAACTAGCCAAAAAAAAG | 9.06 ± 0.47 |
| CGTATGACATAATATTGTACTTTTGATATACATCAT [XGTACX_site7366] | 8.81 ± 0.41 |
| ATAATTAAAAAAGGAATATATATATATATATATATA [GTGCAC_negctrl_site343] | 9.76 ± 0.32 |
| TTTAATAATATTTAGGTGCTATATATTATATGTATA | 8.62 ± 0.39 |
| AAACAAAAAAGAAACACACACTAATTAAATTTTCTT [CACACA_site4746] | 9.1 ± 0.41 |
| CTCAATATATTTGATTTACACACTTACAATGTATAT [CACACA_site8982] | 9.04 ± 0.33 |
| AAGTGGCATATAAGTAAAAAATATATACAAGTATAT [GTGCAC_negctrl_site427] | 8.81 ± 0.51 |
| TATTAAAGATACTCGGTATAAATAAATTTTAATGTG [XGTACX_negctrl_site239] | 8.54 ± 0.52 |
| ACAACATGCACACGCACACACAAAAAAAGCATGCAT [CACACA_site6185] | 9.67 ± 0.3 |

| Sequence | gcPBM binding intensity (ln) |
| --- | --- |
| ATGCTTATTATTTATTGTACTGAATAAATATATCTG [XGTACX_site4483] | 8.86 ± 0.5 |
| TTATTTCTACCTTTTTGTACACATTATTATGAAACC [XGTACX_site5325] | 8.94 ± 0.51 |
| TATAAAAAATATAATTGTACATAAAGGTTAAAATGT [XGTACX_site6138] | 8.84 ± 0.38 |
| ATAAATCATAAGGAGAGTACATAAATAAAATAATCA [XGTACX_site8825] | 8.88 ± 0.5 |
| TATATATGGAAAAGGTGTACATTCAATATATATATA [XGTACX_site3167] | 8.86 ± 0.33 |
| CTATAATATAGGTATACACACATATTATAGAATATT [CACACA_site7696] | 8.98 ± 0.4 |
| TATGTCAAAAAATAATGTACAAAAAAATTAACATAA [XGTACX_site5463] | 8.65 ± 0.45 |
| TGAGTATTTTTTTAATGTACTTATATTAAAAGGAAA [XGTACX_site6286] | 8.13 ± 0.38 |
| TATATTTTTTTTCTAGTGCATATTATTAATTAAGTT | 8.54 ± 0.47 |
| AAAATATTATTTTGTTGTACATATAAAATTTTAAGC [XGTACX_site1866] | 8.49 ± 0.57 |
| TACAAAATAAGACATGCATGTTATACATATATATTT [TGCATGCA_site321] | 9.14 ± 0.41 |
| TTTATTTTGTAGTGTACACATATATATATATATATA [CACACA_site5843] | 9.53 ± 0.23 |
| TATAATATATGTATATGTACTTATGTTGAGAAACAT [XGTACX_site2117] | 8.6 ± 0.38 |
| GAATAATATATATGTTCACACATGGTCTTTATTATA [CACACA_site5457] | 8.89 ± 0.4 |
| TACCTAATATGTTATACACACATTATGAGTACATAT [CACACA_site2466] | 9.13 ± 0.35 |
| GTTATATAAACATATGCATGTGAAGTGTTTATTAAT [TGCATGCA_site183] | 8.98 ± 0.43 |
| TAAGTTTTGTTTTTTTGTACTCATTCATACTATCAT [XGTACX_site3638] | 8.86 ± 0.48 |
| CTTATTTACTATTTTTCACACATTACAGATAAACAA [CACACA_site6095] | 8.6 ± 0.41 |
| TAAATATATATATATAGTACAATATAATTATGATAT [XGTACX_site258] | 8.79 ± 0.38 |

| Sequence | gcPBM binding intensity (ln) |
| --- | --- |
| TCATTGAAAAAAATCTGTACTGACTATATAGTTGCA [XGTACX_site1566] | 8.54 ± 0.37 |
| TATATATATATAATTGCACACATCAAGTTTGATGTT [CACACA_site1288] | 9.38 ± 0.29 |
| AAATGTACAGGACGCACACACATATTTATATTTATA [CACACA_site7689] | 9.53 ± 0.3 |
| GTTGTATACAATAATGTGCACATATTAATTTGAACT | 9.06 ± 0.35 |
| TTTTTTTTTCCTTTTTTTTAAATATTAAAAATGGGA [TGCATGCA_negctrl_site494] | 8.03 ± 0.46 |
| TATATATATATAAGTAGTACAATAATATATTATTTT [XGTACX_site6450] | 8.74 ± 0.42 |
| TTTTACATCATATATAGTACATATATTATACATATA [XGTACX_site8590] | 8.76 ± 0.43 |
| TTTTCTTAATATTTCGTTTTACATAAACCTTTTAAA [CACACA_negctrl_site660] | 8.43 ± 0.52 |
| AATATAATATTATATAGTACATATTTCTTTTATTTT [XGTACX_site22] | 8.6 ± 0.42 |
| TCTTGATACAAACATTTAAATAAATAAATAAAAAAA [GTGCAC_negctrl_site41] | 8.41 ± 0.49 |
| TAATATTATATTTATAGTACATATAATATATATATA [XGTACX_site2964] | 8.47 ± 0.47 |
| TGTTGTGATATATTAAAATCGTCCCTTATAATTTTA [GTGCAC_negctrl_site595] | 8.59 ± 0.34 |
| AAAATACACGCATACACACACACACCGACACATATA [CACACA_site4523] | 10.4 ± 0.28 |
| AAACACACACACAAATGTACATATATATATATATTT [XGTACX_site5090] | 9.79 ± 0.26 |
| GAACACTAATAATGTTGTACACGTAATTATATATTT [XGTACX_site777] | 8.96 ± 0.28 |
| ATATATTTTCATTTTACACACAAATAAAGATAATTT [CACACA_site2996] | 8.79 ± 0.43 |
| AAAATAAATAAAAAAAGTACATATATAATTTATAAA [XGTACX_site2411] | 8.66 ± 0.46 |
| AATGTGCAAACAAACTGTACTTTTTTTTTTTTTTTT [XGTACX_site928] | 8.86 ± 0.26 |
| AGATTTATTCATTCATGTACTTATTTATTTTATTTT [XGTACX_site6702] | 8.91 ± 0.44 |
